# Whole data set: some 18,000 sequences, median “TetR repression strength (sort-seq, GFP reporter)” near 0.23, cut for the highest 2% near 0.68. The list shows a part of the results.
# Target: TetR (class B, Tn10) (UniProt P04483)
# Test: TetR repression strength (sort-seq, GFP reporter) (relative to tetO2 = 1); higher = stronger repression
# Conditions: E. coli
# Outline: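 In LB with 50 µg/mL chloramphenicol, E. coli SIG10-MAX holding a low-copy library with eight randomized operator positions between a constitutive promoter and sfGFP, plus constitutive TetR, grew for 5 h at 37 °C. FACS then sorted 10^6 cells into 13 fluorescence bins for Illumina sequencing of each bin. Repression strength equals the top bin index plus one less the read-weighted mean bin, normalized to the unaltered operator. Values from three independent transformations were averaged when reads were ≥30 in every replicate and the CV was ≤0.5.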
# Sequence of UniProt P04483 (P04483 whole entry): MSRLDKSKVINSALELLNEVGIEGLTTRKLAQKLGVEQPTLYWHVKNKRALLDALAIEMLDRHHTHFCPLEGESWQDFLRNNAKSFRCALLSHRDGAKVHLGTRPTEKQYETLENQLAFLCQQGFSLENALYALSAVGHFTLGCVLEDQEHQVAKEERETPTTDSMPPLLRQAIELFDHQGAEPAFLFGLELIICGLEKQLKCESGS
row,Sequence,TetR repression strength
1,TCCCTTCTAGTGGAGGAGA,0.205
2,TCCCTCTAAGTAATAGAGA,0.472
3,TCCCCTAGAGTAAGTGAGA,0.252
4,TCCCTAACAGTATATGAGA,0.284
5,TCCCGTCGAGTAAAGGAGA,0.22
6,TCCCTCAGAGTACAGGAGA,0.104
7,TCCCTTCAAGTAAATGAGA,0.562
8,TCCCGGAGAGTGGTAGAGA,0.16
9,TCCCCTATAGTGGTCGAGA,0.427
10,TCCCAGCGAGTGACCGAGA,0.694
11,TCCCTTAAAGTGCGAGAGA,0.289
12,TCCCTCGGAGTGGACGAGA,0.107
13,TCCCTCCGAGTGAGGGAGA,0.346
14,TCCCCAGTAGTCGGAGAGA,0.136
15,TCCCATGTAGTCGGGGAGA,0.215
16,TCCCCTAAAGTACATGAGA,0.282
17,TCCCGGGCAGTGGCAGAGA,0.472
18,TCCCTTGCAGTTTTGGAGA,0.234
19,TCCCCCGGAGTCGTTGAGA,0.255
20,TCCCTGTCAGTGATCGAGA,0.734
21,TCCCTATGAGTGCATGAGA,0.311
22,TCCCGTGTAGTGAAGGAGA,0.0744
23,TCCCGGGTAGTCTGAGAGA,0.147
24,TCCCATACAGTCAGCGAGA,0.187
25,TCCCCAGTAGTACTTGAGA,0.0729
26,TCCCAGGCAGTCTTGGAGA,0.252

row,Sequence,TetR repression strength
1,TCCCTGGCAGTGTTAGAGA,0.219
2,TCCCAGCCAGTTGGAGAGA,0.355
3,TCCCGATGAGTGACTGAGA,0.333
4,TCCCTATGAGTGGCCGAGA,0.402
5,TCCCATTTAGTGTCCGAGA,0.311
6,TCCCGCTCAGTTTCTGAGA,0.426
7,TCCCATGGAGTGGAGGAGA,0.0894
8,TCCCAGATAGTTGGGGAGA,0.174
9,TCCCATGGAGTTAGTGAGA,0.232
10,TCCCGGCAAGTGAACGAGA,0.496
11,TCCCCCTGAGTATTGGAGA,0.104
12,TCCCTGGTAGTCAAGGAGA,0.117
13,TCCCCTCGAGTGACGGAGA,0.101
14,TCCCGGATAGTGACCGAGA,0.131
15,TCCCCGGTAGTTACGGAGA,0.201
16,TCCCAGTAAGTCCCCGAGA,0.233
17,TCCCCACGAGTGGTCGAGA,0.173
18,TCCCAGGGAGTTACCGAGA,0.112
19,TCCCTCCGAGTCATCGAGA,0.264
20,TCCCTTCGAGTTAGAGAGA,0.228
21,TCCCAGGCAGTTGAAGAGA,0.182
22,TCCCACTCAGTTCTAGAGA,0.611
23,TCCCCTTCAGTTGAGGAGA,0.079
24,TCCCGTGTAGTCTGCGAGA,0.0873
25,TCCCGAATAGTGGTGGAGA,0.306
26,TCCCCCGCAGTTGCGGAGA,0.0787

row,Sequence,TetR repression strength
1,TCCCGGTGAGTCGTTGAGA,0.289
2,TCCCGAGCAGTAAAGGAGA,0.0954
3,TCCCGCTGAGTTGGGGAGA,0.28
4,TCCCTAATAGTGGTCGAGA,0.278
5,TCCCCCCAAGTTGATGAGA,0.369
6,TCCCTCTGAGTGCTAGAGA,0.333
7,TCCCGAAGAGTGAGTGAGA,0.207
8,TCCCATAGAGTGTAAGAGA,0.309
9,TCCCGAGGAGTAAGGGAGA,0.168
10,TCCCGGAAAGTGGCTGAGA,0.196
11,TCCCCAAGAGTAAGGGAGA,0.0854
12,TCCCGCTGAGTAAATGAGA,0.257
13,TCCCTATAAGTCAGTGAGA,0.427
14,TCCCTCTCAGTGCAAGAGA,0.607
15,TCCCTGCCAGTGCGAGAGA,0.407
16,TCCCGCTCAGTCCTGGAGA,0.63
17,TCCCAGGTAGTCGCGGAGA,0.151
18,TCCCGCATAGTGATAGAGA,0.512
19,TCCCTTACAGTTCGTGAGA,0.274
20,TCCCCTCTAGTTTACGAGA,0.319
21,TCCCTACTAGTTTGGGAGA,0.259
22,TCCCATTAAGTTGGGGAGA,0.112
23,TCCCGTAAAGTTGAAGAGA,0.271
24,TCCCTGGAAGTTCGCGAGA,0.207
25,TCCCCGGTAGTGGCGGAGA,0.17
26,TCCCATACAGTTAGGGAGA,0.512

row,Sequence,TetR repression strength
1,TCCCTGAGAGTGTCGGAGA,0.242
2,TCCCCAGGAGTCGGTGAGA,0.313
3,TCCCGAGTAGTCTTAGAGA,0.243
4,TCCCCTGAAGTATTGGAGA,0.143
5,TCCCGCTGAGTTGTGGAGA,0.0444
6,TCCCTGTCAGTGATAGAGA,0.863
7,TCCCGCATAGTGGGTGAGA,0.0459
8,TCCCTAAAAGTGGAGGAGA,0.182
9,TCCCAGCCAGTTTGTGAGA,0.19
10,TCCCATTGAGTTCACGAGA,0.468
11,TCCCACAAAGTCGCCGAGA,0.439
12,TCCCCGGGAGTGCAAGAGA,0.346
13,TCCCATGTAGTCCAGGAGA,0.595
14,TCCCTGGAAGTGTGCGAGA,0.207
15,TCCCATGGAGTCAATGAGA,0.0471
16,TCCCGGCAAGTACCGGAGA,0.223
17,TCCCTGGAAGTCTGCGAGA,0
18,TCCCAATTAGTAACCGAGA,0.459
19,TCCCGACGAGTACCTGAGA,0.245
20,TCCCTAAAAGTATATGAGA,0.328
21,TCCCATCGAGTCGCAGAGA,0.329
22,TCCCGATCAGTTTAGGAGA,0.181
23,TCCCACTAAGTACTGGAGA,0.444
24,TCCCGGCCAGTTATAGAGA,0.635
25,TCCCCGCCAGTGCAAGAGA,0.352
26,TCCCGTGAAGTGGTCGAGA,0.0333

row,Sequence,TetR repression strength
1,TCCCGTAGAGTTGGAGAGA,0.228
2,TCCCTACAAGTGTCGGAGA,0.104
3,TCCCGCTGAGTTTGTGAGA,0.158
4,TCCCACACAGTTTGTGAGA,0.375
5,TCCCGCCCAGTGGCAGAGA,0.305
6,TCCCGCTCAGTACTTGAGA,0.241
7,TCCCTCAGAGTGCTGGAGA,0.475
8,TCCCCGGCAGTATGTGAGA,0.189
9,TCCCGAAGAGTCGTAGAGA,0.373
10,TCCCGATCAGTCGATGAGA,0.309
11,TCCCTAGGAGTGAAAGAGA,0.411
12,TCCCTTCTAGTCTCCGAGA,0.382
13,TCCCGCGTAGTCGGTGAGA,0.167
14,TCCCAGATAGTTTAAGAGA,0.238
15,TCCCTATTAGTCGAGGAGA,0.35
16,TCCCGCGGAGTAATGGAGA,0.167
17,TCCCCGCCAGTCCGCGAGA,0.233
18,TCCCAGTTAGTGGTGGAGA,0.203
19,TCCCTGATAGTTCGTGAGA,0.288
20,TCCCTGACAGTGGGTGAGA,0.155
21,TCCCGTTGAGTTTGCGAGA,0.167
22,TCCCTAGCAGTGCTTGAGA,0.321
23,TCCCACGCAGTGTCCGAGA,0.242
24,TCCCAAGGAGTTGTTGAGA,0.331
25,TCCCTAGTAGTAGTGGAGA,0.159
26,TCCCTGGAAGTGATAGAGA,0.473

row,Sequence,TetR repression strength
1,TCCCCTCAAGTGTTAGAGA,0.194
2,TCCCGCTAAGTGTGTGAGA,0.243
3,TCCCAGCCAGTTAAGGAGA,0.137
4,TCCCGAGGAGTGGCTGAGA,0.0686
5,TCCCTCTTAGTTGCGGAGA,0.21
6,TCCCGTTCAGTTCTGGAGA,0.17
7,TCCCGTTGAGTGGTGGAGA,0.158
8,TCCCCTAGAGTCAATGAGA,0.594
9,TCCCGCTAAGTTGCCGAGA,0.248
10,TCCCATCGAGTCGGAGAGA,0.0897
11,TCCCAGGAAGTGAGGGAGA,0.207
12,TCCCGGGGAGTCGGCGAGA,0.152
13,TCCCATATAGTGGTTGAGA,0.011
14,TCCCACCCAGTGGAGGAGA,0.207
15,TCCCCGCCAGTACGTGAGA,0.443
16,TCCCGTTCAGTGAAGGAGA,0.518
17,TCCCAAGTAGTTTATGAGA,0.325
18,TCCCAATTAGTGTAAGAGA,0.252
19,TCCCCATAAGTCATCGAGA,0.214
20,TCCCTGTAAGTAAATGAGA,0.264
21,TCCCACTCAGTAGGTGAGA,0.104
22,TCCCCTGCAGTGTCGGAGA,0.285
23,TCCCGGTAAGTTTGGGAGA,0.131
24,TCCCGTTTAGTAGTTGAGA,0.028
25,TCCCCGCAAGTAGGTGAGA,0.0622
26,TCCCAGGTAGTAGGTGAGA,0.223

row,Sequence,TetR repression strength
1,TCCCAGCTAGTTACTGAGA,0.13
2,TCCCTGTCAGTCGTGGAGA,0.251
3,TCCCCGGCAGTGCCCGAGA,0.267
4,TCCCTAACAGTTCTAGAGA,0.328
5,TCCCTCTCAGTGACAGAGA,0.607
6,TCCCCGTCAGTGTCGGAGA,0.17
7,TCCCCGCGAGTGTTAGAGA,0.124
8,TCCCTGCTAGTAGGTGAGA,0.331
9,TCCCTCAGAGTTTATGAGA,0.104
10,TCCCAGAGAGTTCAGGAGA,0.446
11,TCCCAGATAGTCTAGGAGA,0.404
12,TCCCCAGAAGTGATTGAGA,1.1
13,TCCCCTCCAGTTCACGAGA,0.329
14,TCCCGTGTAGTAACCGAGA,0.276
15,TCCCTAACAGTATTGGAGA,0.194
16,TCCCTGCAAGTCCTAGAGA,0.128
17,TCCCAGCTAGTATTGGAGA,0.41
18,TCCCTGAGAGTATGCGAGA,0.0898
19,TCCCCGGTAGTCCTGGAGA,0.0633
20,TCCCTGATAGTAGATGAGA,0.498
21,TCCCATACAGTATTCGAGA,0.274
22,TCCCATCAAGTGGTGGAGA,0.194
23,TCCCGCCGAGTAACCGAGA,0.0406
24,TCCCGGCAAGTTTGAGAGA,0.238
25,TCCCGAAGAGTTCGGGAGA,0.225
26,TCCCTTCGAGTTCTTGAGA,0.241

row,Sequence,TetR repression strength
1,TCCCTGAGAGTCCTAGAGA,0.0655
2,TCCCCTCAAGTCTTAGAGA,0.372
3,TCCCAGACAGTGTTTGAGA,0.283
4,TCCCTACTAGTCGCTGAGA,0.319
5,TCCCGAGCAGTTGGGGAGA,0.142
6,TCCCTGAAAGTCCTAGAGA,0.282
7,TCCCTTACAGTAATCGAGA,0.276
8,TCCCTCCAAGTCCCAGAGA,0.375
9,TCCCAATAAGTTGCTGAGA,0.262
10,TCCCCCTAAGTAACCGAGA,0.418
11,TCCCGGTCAGTGTCTGAGA,0.228
12,TCCCTAGGAGTCTTCGAGA,0.093
13,TCCCCGATAGTTATTGAGA,0.38
14,TCCCGTTGAGTTCGCGAGA,0.376
15,TCCCTATTAGTGACCGAGA,0.582
16,TCCCGGGGAGTGGGCGAGA,0.225
17,TCCCTGGGAGTAACAGAGA,0.221
18,TCCCCGTAAGTGTAGGAGA,0.0549
19,TCCCGCTGAGTATGTGAGA,0.214
20,TCCCGATTAGTCTGTGAGA,0.207
21,TCCCTGGTAGTGTGTGAGA,0.225
22,TCCCGCATAGTATTCGAGA,0.352
